Data: publication PMC4336329 (PLoS ONE, 2015)
Among all 310,000 compounds or so, about 2,200 (0.71%) showed an effect of 50% or more. The effect is printed as a negative number. This is one part of the list. Where a SMILES comes first, the peptide text is derived from it. The star is where a group is joined. Cbz = O=C(OCc1ccccc1)*

The compounds below were run against human ether-à-go-go-related gene (hERG) potassium channel (human, UniProt Q12809) (assay: primary screen, population patch clamp on CHO cells stably expressing hERG).
human ether-à-go-go-related gene (hERG) potassium channel, sequence (Q12809 whole entry, looked up): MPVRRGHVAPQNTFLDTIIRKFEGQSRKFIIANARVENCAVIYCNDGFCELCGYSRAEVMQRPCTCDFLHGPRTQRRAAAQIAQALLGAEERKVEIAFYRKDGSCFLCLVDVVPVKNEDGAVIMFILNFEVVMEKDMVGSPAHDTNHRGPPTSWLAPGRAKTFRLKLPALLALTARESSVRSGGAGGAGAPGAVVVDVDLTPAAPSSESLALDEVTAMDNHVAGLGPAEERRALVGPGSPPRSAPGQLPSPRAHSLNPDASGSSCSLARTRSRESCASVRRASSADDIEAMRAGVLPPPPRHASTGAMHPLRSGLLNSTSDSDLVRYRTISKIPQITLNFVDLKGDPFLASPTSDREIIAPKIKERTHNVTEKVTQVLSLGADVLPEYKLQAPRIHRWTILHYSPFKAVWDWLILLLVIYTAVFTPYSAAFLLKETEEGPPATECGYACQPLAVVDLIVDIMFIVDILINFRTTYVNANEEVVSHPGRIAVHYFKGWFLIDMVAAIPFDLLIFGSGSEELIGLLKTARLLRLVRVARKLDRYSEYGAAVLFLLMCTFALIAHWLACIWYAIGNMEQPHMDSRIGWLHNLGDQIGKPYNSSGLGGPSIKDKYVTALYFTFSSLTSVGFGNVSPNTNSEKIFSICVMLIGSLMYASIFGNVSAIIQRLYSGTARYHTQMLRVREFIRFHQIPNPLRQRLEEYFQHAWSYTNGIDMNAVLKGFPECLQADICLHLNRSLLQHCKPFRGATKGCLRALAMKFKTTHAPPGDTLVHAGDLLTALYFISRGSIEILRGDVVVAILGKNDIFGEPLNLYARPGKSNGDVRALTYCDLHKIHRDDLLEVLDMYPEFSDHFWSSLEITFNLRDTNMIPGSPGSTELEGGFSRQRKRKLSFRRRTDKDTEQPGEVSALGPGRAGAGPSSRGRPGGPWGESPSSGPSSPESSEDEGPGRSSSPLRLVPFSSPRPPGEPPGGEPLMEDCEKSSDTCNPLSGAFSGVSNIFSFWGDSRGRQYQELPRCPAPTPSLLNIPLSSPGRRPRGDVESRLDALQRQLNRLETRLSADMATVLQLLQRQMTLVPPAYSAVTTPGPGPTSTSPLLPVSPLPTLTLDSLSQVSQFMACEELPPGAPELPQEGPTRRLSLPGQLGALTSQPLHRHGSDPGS

Row | Structure (SMILES) | hERG current change (%, negative = inhibition) at 1uM
1 | O=C(c1ccccc1)N1CCCCCC1 | 18.8%
2 | COc1cc(C)nc(NS(=O)(=O)c2ccccc2Cl)n1 | 20%
3 | O=C(NC1CCCCCC1)c1nc2ncccn2n1 | 21.8%
4 | COc1ccccc1N1CCN(S(=O)(=O)c2c(C)sc3ncn(CC(=O)NCCN(C)C)c(=O)c23)CC1 | 10.8%
5 | CCOC(=O)Cc1csc(NC(=O)COc2ccccc2OCC)n1 | -6.51%
6 | Cc1cc(C=C2C(=O)CCCC2=O)c(C)n1-c1ccccc1 | 8.72%
7 | COc1ccccc1NS(=O)(=O)c1cccc(C(=O)N2CCN(Cc3ccc4c(c3)OCO4)CC2)c1 | -3.65%
8 | CCCOc1ccc(C(O)(CCN2CCCCC2)c2ccccc2OC)cc1.Cl (centres unmarked) | 5.1%
9 | O=Cc1cn(-c2ccccc2)nc1-c1cc2c(ccc3ccccc32)oc1=O | 9.89%
10 | CSc1ccccc1NC(=O)CN1CCN(S(=O)(=O)c2ccccc2[N+](=O)[O-])CC1 | -0.993%
11 | COC(=O)c1ccc(/C=N/NC(=O)c2cccc(F)c2)cc1 | 12.2%
12 | COc1ccc(NC(=O)CSc2nc3cccnc3n2C)cc1 | 13.9%
13 | Oc1ccc(-c2nc(-c3ccc(F)cc3)c(-c3ccncc3)[nH]2)cc1 | 1.23%
14 | Cc1ccc(OCC(=O)Nc2ccc(F)cc2)c([N+](=O)[O-])n1 | 8.65%
15 | O=S(Cc1ccc(Br)cc1)Cc1nnc(SCc2ccc(Br)cc2)n1-c1ccccc1 (centres unmarked) | 8.54%
16 | Cc1cc(N2CCN(C)CC2)ccc1NC(=O)c1c2c(nc3ccccc13)CCN(Cc1ccccc1)C2 | 9.88%
17 | CC1(C)Cc2c(c(N3CCOCC3)nc3sc4c(NCc5ccccc5)nnnc4c23)CS1 | -5.68%
18 | CCOC(=O)c1c(C)[nH]c(C(=O)NCCN2CCOCC2)c1C | 14.1%
19 | O=P(c1ccccc1)(c1ccccc1)C(O)c1ccncc1 (centres unmarked) | 18.7%

Row | Structure (SMILES) | hERG current change (%, negative = inhibition) at 1uM
20 | CN1/C(=C\C(=O)Nc2cccc(Cl)c2)C(C)(C)c2ccccc21 | 3.51%
21 | O=C(NCc1ccco1)C1CCCN(S(=O)(=O)c2cccc3nonc23)C1 (centres unmarked) | 4.31%
22 | CC1CC(C)CN(C(=O)CNS(=O)(=O)c2cccs2)C1 (centres unmarked) | 12.6%
23 | CCCN1CCN(C(=S)Nc2sc(CC)cc2C(=O)OC)CC1 | 11.7%
24 | COc1ccc(-c2cc(C(=O)Nc3c(C)n(C)n(-c4ccccc4)c3=O)no2)cc1 | 4.76%
25 | COc1ccc(OC)c(NC(=O)CN2C(=O)CSc3ccc(S(=O)(=O)N4CCCC4)cc32)c1 | 11.2%
26 | COc1ccc(-c2c(C#N)c(SCC(N)=O)nc3c2CCCC3)cc1 | 4.57%
27 | NS(=O)(=O)c1cccc(NC(=O)CCN2C(=O)C3CCCCC3C2=O)c1 (centres unmarked) | 17.8%
28 | COc1ccccc1CCNC(=O)c1ccc(C)o1 | -13.9%
29 | COc1ccc(O)c(C=NCC(C)N=Cc2cc(OC)ccc2O)c1 (centres unmarked) | 10.1%
30 | CC(=O)Oc1ccc(/C=C(\NC(=O)c2ccco2)C(=O)Nc2ccc(C(C)=O)cc2)cc1 | 7.47%
31 | Cc1ccc(-n2nc3c(c2NC(=O)CC(C)C)CS(=O)(=O)C3)c(C)c1 | 25.6%
32 | COc1cccc(NC(=O)C2CCCN2C(=O)NC2CCCCC2)c1 (centres unmarked) | 14.9%
33 | CC(NC(=O)CNC(=O)C(Cc1ccccc1)NC(=O)OCc1ccccc1)C(N)=O (stereo not drawn) (Cbz-Phe-Gly-Ala-NH2; configuration not given here) | 19.7%
34 | CC(C)c1cc(-c2cc(C(=O)Nc3ccccc3)on2)nc(NC2CCCC2)n1 | -0.452%
35 | CCCc1oc(C(=O)O)cc1CN.Cl | 9.54%
36 | CC(=O)Nc1ccc(OC(=O)c2ccco2)cc1 | 9.5%
37 | O=C1NC(=O)N(Cc2ccccc2)C(=O)/C1=C/N1CCCc2ccccc21 | 16.5%
38 | CC(C)Oc1ccc(OCCn2c(=S)[nH]c3c(N)ncnc32)cc1 | 10.7%

Row | Structure (SMILES) | hERG current change (%, negative = inhibition) at 1uM
39 | Cc1nc(C(=O)O)nn1-c1ccc([N+](=O)[O-])cc1 | 13%
40 | CC(C)[C@H](NC(=O)c1c(F)cccc1F)C(=O)OCC(=O)NC(=O)NC1CCCC1 | 4.69%
41 | CCN1CCc2c(sc(NC(=O)Cc3ccccc3)c2C(=O)OC)C1.Cl | -6.48%
42 | Cn1c(=O)c2c(nc(Br)n2CC(=O)C23CC4CC(CC(C4)C2)C3)n(C)c1=O | -1.49%
43 | Cc1cccc(Cc2c(C)[nH]c(=O)c(C#N)c2C)c1 | 4.05%
44 | Cc1cccc(C2NC(c3cccc(C)c3)C(C)C(=O)C2C)c1 (centres unmarked) | 15.9%
45 | CC1(C)CC2(C)Nc3ccccc3N2C(=S)N1 (centres unmarked) | 17.4%
46 | CCOC(=O)C1=C(C)NC(=O)C(C(N)=O)C12CCCCC2 (centres unmarked) | 16.7%
47 | COc1ccc(Cc2nc3ccc(S(=O)(=O)N4CCOCC4)cc3[nH]2)cc1OC | 13.9%
48 | Cc1cccc(NC(=S)N2CCN(S(=O)(=O)c3cccc(F)c3)CC2)c1 | 9.44%
49 | CCCNC(=O)c1ccccc1C(=O)NCCC | 1.81%
50 | Cc1cc(C)cc(NC(=O)CSc2nc(=O)n3cc(C)ccc3n2)c1 | -0.827%
51 | COc1ccc(C2NCCc3cc(OC)c(OC)cc32)cc1OC (centres unmarked) | 3.45%
52 | Cc1cc2c(NCc3ccccc3)ncnc2s1.Cl | 9.26%
53 | CCn1c(=O)c2cc(C(=O)N3CCOCC3)sc2c2ccccc21 | 9.17%
54 | COc1cc2c(cc1OC)C(C)N(C(=O)/C=C/c1cc(OC)c(OC)c(OC)c1)CC2 (centres unmarked) | 11%
55 | O=C1c2ccccc2S(=O)(=O)N1CC1CC(c2ccccc2)=NO1 (centres unmarked) | 13.7%
56 | CCOC(=O)N1CCN(C(=O)c2cc3c(=O)n(C)c4ccccc4c3n2C)CC1 | 2.29%
